Assay results: the supplement of paper PMC12217912
The other results are listed elsewhere or left out. Sequences were assembled here from the parent chain. Values near 0.05 are background.

B1: TEV protease; numbered along this chain (parent)
chain: MGESLFKGPRDYNPISSSICHLTNESDGHTTSLYGIGFGPFIITNKHLFRRNNGTLVVQSLHGVFKVKDTTTLQQHLVDGRDMIIIRMPKDFPPFPQKLKFREPQREERICLVTTNFQTKSMSSMVSDTSCTFPSGDGIFWKHWIQTKDGQCGSPLVSTRDGFIVGIHSASNFTNTNNYFTSVPKNFMELLTNQEAQQWVSGWRLNADSVLWGGHKVFMVKPEEPFQPVKEATQL

Variants of: B1
Test: raw area under fraction-flipped curve 0-4 h after induction (AUC4h, not background-subtracted), DNA-recorder readout of cleavage of the substrate (dimensionless); higher = more cleavage of the substrate by the protease variant
Settings: temperature: 34 °C; time window: 0-4 h after rhamnose induction
Procedure: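 In vivo DNA recorder in E. coli TOP10(DE3) ΔrhaA at 34 °C. Each TEVp single-site mutant (parent TEVp 0) is paired with a single-site variant of the 7-mer TEVs (canonical ENLYFQ|S). The substrate sits between flexible linkers in a Bxb1-sfGFP-TEVs-SsrA fusion, so cleavage stabilises Bxb1 and speeds flipping of a recombination array, read by NGS. The value is the raw area under the fraction-flipped curve over 0-4 h after rhamnose induction (AUC4h), with ≥20 reads per time point. It is not background-subtracted; inactive controls average about 0.047.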
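Also: Bxb1 expression induced with 0.2% (w/v) L-rhamnose at OD600 near 0.5, cultures sampled hourly, flipped fraction per protease–substrate barcode pair counted by paired-end Illumina sequencing.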

Variant | area with substrate EALYFQS | area with substrate ECLYFQS | area with substrate EDLYFQS | area with substrate EELYFQS | area with substrate EFLYFQS | area with substrate EILYFQS | area with substrate ELLYFQS | area with substrate EMLYFQS | area with substrate EQLYFQS | area with substrate ERLYFQS | area with substrate EVLYFQS | area with substrate EGLYFQS | area with substrate EKLYFQS | area with substrate ESLYFQS | area with substrate ETLYFQS | area with substrate EWLYFQS | area with substrate EYLYFQS | area with substrate EHLYFQS | area with substrate EPLYFQS
I86R | 0.0379 | 0.0416 | 0.0682 | 0.0533 | 0.0407 | 0.033 | 0.0285 | 0.0439 | 0.0446 | 0.0403 | 0.0431 | – | – | – | – | – | – | – | –
I86F | 0.0776 | 0.101 | – | 0.0986 | 0.0828 | 0.0849 | 0.0768 | 0.0951 | 0.099 | 0.0806 | 0.0966 | 0.0851 | 0.0812 | 0.088 | 0.1 | 0.0727 | – | – | –
D79V | 0.116 | 0.0802 | – | 0.0994 | – | 0.115 | 0.0475 | 0.0932 | 0.111 | 0.0952 | 0.0956 | 0.0908 | 0.113 | 0.0987 | – | 0.102 | 0.0906 | – | –
D79L | 0.105 | 0.109 | 0.0965 | 0.0992 | – | 0.0906 | – | – | 0.121 | 0.0843 | 0.0792 | – | 0.0812 | 0.09 | – | – | – | 0.0891 | 0.0793
D79G | 0.0994 | 0.0868 | 0.127 | 0.0941 | 0.076 | 0.0786 | 0.0786 | 0.114 | 0.126 | – | 0.124 | 0.0908 | 0.0653 | 0.084 | 0.108 | – | 0.0853 | – | 0.124
Q74D | 0.111 | 0.0925 | – | 0.125 | – | 0.0974 | 0.0859 | – | 0.105 | 0.0991 | 0.105 | 0.0883 | 0.103 | 0.106 | 0.0845 | – | 0.131 | 0.104 | –
Q74G | 0.148 | 0.0797 | 0.125 | 0.134 | – | 0.119 | 0.0854 | – | – | 0.102 | 0.0919 | 0.0856 | – | 0.121 | – | 0.093 | 0.125 | 0.131 | –
L73G | 0.044 | 0.0359 | 0.0511 | 0.0565 | 0.0336 | 0.051 | 0.053 | – | 0.0613 | 0.0494 | 0.0433 | 0.0519 | 0.0327 | 0.0568 | – | 0.0521 | – | – | 0.0302
T71F | 0.0991 | 0.0918 | 0.0966 | 0.116 | 0.0744 | 0.075 | 0.0701 | 0.0909 | 0.103 | 0.0623 | 0.0842 | 0.062 | 0.0825 | 0.0818 | 0.0936 | – | – | – | –
V78G | 0.073 | 0.0988 | 0.0712 | 0.0873 | 0.0994 | 0.0535 | 0.0616 | – | – | – | – | 0.0585 | 0.0844 | 0.0846 | – | 0.0842 | – | – | 0.0942
V78A | 0.0572 | 0.054 | 0.0827 | 0.0674 | – | 0.066 | – | 0.0663 | 0.0888 | 0.0679 | 0.0832 | 0.0679 | – | 0.0726 | 0.074 | – | 0.0521 | – | 0.0464
P89F | 0.0972 | 0.0728 | – | 0.0682 | 0.0802 | 0.0742 | – | – | 0.0954 | – | 0.0584 | – | – | 0.0555 | – | 0.0756 | 0.064 | 0.0788 | 0.076
P89E | 0.0358 | 0.102 | 0.0963 | 0.115 | 0.0877 | 0.0949 | – | 0.109 | 0.0981 | 0.0921 | 0.0854 | 0.0889 | 0.106 | 0.0999 | 0.112 | 0.0876 | 0.117 | – | 0.0882
P89W | 0.0773 | 0.0617 | – | 0.0461 | 0.0634 | 0.0544 | 0.051 | 0 | – | 0.0793 | 0.0687 | – | 0.0818 | 0.071 | 0.0541 | 0.0613 | – | 0.0857 | –
R81G | 0.0875 | 0.101 | 0.109 | – | – | 0.0745 | 0.0828 | – | 0.0862 | 0.0948 | 0.074 | 0.123 | 0.0865 | 0.0944 | – | – | – | – | –
R81I | 0.151 | 0.116 | 0.119 | – | – | 0.0753 | 0.0922 | – | 0.132 | 0.108 | – | 0.0711 | – | 0.126 | – | 0.131 | – | – | –
K90I | 0.118 | 0.107 | 0.101 | 0.156 | 0.0688 | 0.0845 | 0.0997 | 0.0976 | 0.132 | 0.105 | – | 0.0551 | 0.104 | 0.105 | 0.124 | – | – | 0.137 | 0.118
K90F | 0.119 | 0.115 | 0.123 | 0.145 | – | 0.0867 | 0.0841 | – | 0.118 | – | – | – | 0.117 | 0.0955 | – | 0.104 | 0.0867 | – | –
F92T | 0.113 | 0.134 | 0.127 | 0.118 | 0.0977 | 0.116 | 0.0999 | 0.111 | 0.129 | 0.0933 | – | 0.0908 | 0.0779 | 0.082 | – | – | – | – | –
L77T | 0.0587 | 0.0757 | – | 0.0714 | – | – | 0.0545 | – | – | – | 0.0664 | 0.0706 | 0.0662 | – | – | – | – | – | –
H76E | 0.111 | 0.0819 | 0.0935 | 0.0815 | 0.0824 | 0.0707 | 0.0606 | 0.0833 | 0.0822 | 0.0844 | 0.0851 | – | – | 0.0822 | – | 0.0826 | 0.0886 | 0.0738 | 0.081
G80H | 0.121 | 0.13 | 0.128 | 0.132 | – | 0.102 | 0.0949 | – | 0.134 | 0.102 | 0.107 | 0.0403 | – | 0.104 | 0.121 | 0.082 | – | – | 0.161
P94E | 0.135 | 0.121 | – | 0.119 | 0.0889 | 0.108 | – | 0.118 | 0.125 | 0.113 | 0.125 | 0.13 | 0.12 | 0.0961 | – | – | – | 0.104 | –
I85C | 0.0876 | 0.0733 | 0.0823 | 0.113 | – | 0.0693 | 0.0766 | – | 0.0458 | 0.0881 | 0.0846 | – | 0.0723 | 0.0739 | – | 0.0625 | 0.0993 | 0.0639 | –
I85K | 0.0552 | 0.0752 | 0.0845 | 0.0549 | – | 0.017 | 0.0691 | 0.0574 | – | – | 0.0842 | 0.0511 | – | 0.0545 | – | 0.044 | 0.0651 | 0.0789 | 0.0532
I85F | 0.103 | 0.111 | 0.15 | – | – | – | – | 0.116 | 0.0577 | 0.111 | – | – | – | 0.114 | – | 0.0813 | – | 0.0902 | –
D91C | 0.101 | 0.0729 | 0.121 | – | – | – | 0.106 | – | – | 0.0913 | – | 0.0831 | – | – | – | – | 0.0901 | 0.107 | –
